According to the supplement of paper PMC12217912:
Some of the results follow. Sequences were assembled here from the parent chain. Inactive controls read about 0.05.

B1: TEV protease; numbered along this chain (parent)
chain: MGESLFKGPRDYNPISSSICHLTNESDGHTTSLYGIGFGPFIITNKHLFRRNNGTLVVQSLHGVFKVKDTTTLQQHLVDGRDMIIIRMPKDFPPFPQKLKFREPQREERICLVTTNFQTKSMSSMVSDTSCTFPSGDGIFWKHWIQTKDGQCGSPLVSTRDGFIVGIHSASNFTNTNNYFTSVPKNFMELLTNQEAQQWVSGWRLNADSVLWGGHKVFMVKPEEPFQPVKEATQL

Variants of: B1
Test: raw area under fraction-flipped curve 0-4 h after induction (AUC4h, not background-subtracted), DNA-recorder readout of cleavage of the substrate (dimensionless); higher = more cleavage of the substrate by the protease variant
Details: temperature: 34 °C; time window: 0-4 h after rhamnose induction
Experimental: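 In vivo DNA recorder in E. coli TOP10(DE3) ΔrhaA at 34 °C. Each TEVp single-site mutant (parent TEVp 0) is paired with a single-site variant of the 7-mer TEVs (canonical ENLYFQ|S). The substrate sits between flexible linkers in a Bxb1-sfGFP-TEVs-SsrA fusion, so cleavage stabilises Bxb1 and speeds flipping of a recombination array, read by NGS. The value is the raw area under the fraction-flipped curve over 0-4 h after rhamnose induction (AUC4h), with ≥20 reads per time point. It is not background-subtracted; inactive controls average about 0.047.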
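Also: Bxb1 expression induced with 0.2% (w/v) L-rhamnose at OD600 near 0.5, cultures sampled hourly, flipped fraction per protease–substrate barcode pair counted by paired-end Illumina sequencing.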

Row | Variant | area with substrate ENLYCQS | area with substrate ENLYDQS | area with substrate ENLYHQS | area with substrate ENLYIQS | area with substrate ENLYNQS | area with substrate ENLYQQS | area with substrate ENLYAQS | area with substrate ENLYEQS | area with substrate ENLYGQS | area with substrate ENLYKQS | area with substrate ENLYLQS | area with substrate ENLYPQS | area with substrate ENLYRQS | area with substrate ENLYSQS | area with substrate ENLYTQS | area with substrate ENLYVQS | area with substrate ENLYWQS | area with substrate ENLYYQS | area with substrate ENLYMQS
1 | R87G | 0.067 | 0.0654 | 0.0504 | 0.101 | 0.0592 | 0.0826 |  |  |  |  |  |  |  |  |  |  |  |  | 
2 | T129S |  | 0.0624 | 0.0545 | 0.107 | 0.0677 | 0.0699 | 0.0854 | 0.0728 | 0.0634 | 0.0661 | 0.0748 | 0.0749 | 0.0673 | 0.0954 | 0.0916 | 0.0835 | 0.0838 | 0.082 | 
3 | P93H |  | 0.0586 | 0.0633 | 0.104 | 0.0697 | 0.0809 | 0.0645 | 0.063 | 0.0581 | 0.0567 |  | 0.0725 |  | 0.0733 |  |  | 0.0708 | 0.0615 | 0.0801
4 | T71Y | 0.0351 | 0.0567 | 0.061 |  | 0.0443 | 0.0578 |  | 0.0684 |  | 0.0696 |  |  | 0.0712 |  |  | 0.0932 | 0.0565 |  | 0.0737
5 | T71D |  |  | 0.0774 | 0.0898 | 0.0653 |  | 0.0544 | 0.0643 |  | 0.101 | 0.094 | 0.065 | 0.0512 |  | 0.0777 |  | 0.0619 |  | 0.0624
6 | N178V |  | 0.0447 |  | 0.0918 |  | 0.0605 | 0.0643 | 0.0675 |  | 0.0951 |  | 0.0656 |  |  | 0.0729 | 0.089 |  |  | 
7 | N178F | 0.234 |  |  |  | 0.142 |  |  |  | 0.0685 |  |  | 0.148 |  | 0.0738 |  |  | 0.161 |  | 
8 | M188I | 0.0815 | 0.0693 |  |  |  | 0.0671 |  |  | 0.0712 | 0.0515 |  | 0.0758 | 0.0684 | 0.0587 | 0.0655 | 0.108 |  | 0.0912 | 0.0797
9 | M219P | 0.0441 | 0.065 | 0.0552 | 0.0676 | 0.0604 | 0.0599 | 0.05 | 0.0715 | 0.0572 | 0.0586 | 0.0589 | 0.0516 | 0.0657 | 0.0562 | 0.0708 | 0.0713 | 0.075 | 0.0935 | 0.0487
10 | K90C | 0.0581 | 0.0668 | 0.0654 | 0.115 | 0.0697 | 0.0587 | 0.0735 | 0.0719 |  | 0.0618 | 0.0861 | 0.0634 | 0.0616 | 0.0695 | 0.078 | 0.127 | 0.0644 | 0.073 | 
11 | F6R |  | 0.0758 | 0.0701 | 0.113 |  | 0.0862 | 0.0661 | 0.0945 | 0.0367 |  |  | 0.0669 | 0.0653 |  |  |  | 0.09 |  | 0.0472
12 | F173Q | 0.0823 | 0.067 | 0.0574 |  | 0.0595 | 0.0697 | 0.0735 | 0.0672 |  |  |  | 0.0551 |  |  |  |  | 0.0632 |  | 
13 | F173G |  | 0.0719 | 0.0601 | 0.0839 | 0.0541 |  | 0.0632 | 0.0528 | 0.0506 |  | 0.0743 |  |  | 0.0595 | 0.0567 | 0.0748 | 0.0284 | 0.0534 | 
14 | L61Q | 0.0808 | 0.0474 |  | 0.113 |  | 0.0639 |  | 0.0743 |  | 0.0926 | 0.0868 | 0.0697 | 0.0678 | 0.0689 |  | 0.112 | 0.076 | 0.0717 | 
15 | G63C | 0.0811 | 0.0531 | 0.0685 | 0.143 | 0.0647 |  |  | 0.0649 | 0.059 | 0.0688 | 0.089 | 0.0725 |  | 0.0638 | 0.0774 | 0.0988 | 0.077 | 0.0533 | 0.0809
16 | K120M | 0.0939 | 0.0626 |  | 0.115 |  |  |  | 0.0666 |  | 0.0596 |  | 0.083 | 0.072 | 0.0973 |  | 0.124 |  |  | 0.101
17 | M122G | 0.0967 |  | 0.0525 |  | 0.0769 |  |  |  | 0.0722 | 0.0226 |  |  | 0.068 |  |  | 0.0888 |  |  | 
18 | N172F | 0.0594 |  |  | 0.0515 |  |  |  | 0.0518 |  | 0.0615 |  |  |  |  |  | 0.0757 | 0.0443 |  | 0.0646
19 | Q151R | 0.0736 | 0.0654 |  | 0.0974 |  | 0.065 |  | 0.0503 | 0.0559 | 0.0555 | 0.0733 |  | 0.0598 |  | 0.0346 | 0.0959 | 0.0574 | 0.0503 | 0.0574
20 | L33C |  | 0.0555 | 0.0591 | 0.0705 | 0.0648 | 0.0649 | 0.0699 | 0.0658 |  | 0.0544 |  | 0.0838 |  | 0.081 | 0.0697 | 0.0857 |  |  | 0.0698
21 | R50V |  | 0.0637 | 0.104 | 0.199 | 0.0667 |  | 0.098 | 0.0526 | 0.0623 | 0.0214 | 0.11 | 0.0755 | 0.0659 | 0.0721 |  | 0.15 | 0.105 | 0.0654 | 
22 | N116R | 0.075 | 0.0736 |  |  |  | 0.0803 | 0.0613 |  | 0.0494 |  |  | 0.0648 |  |  |  | 0.134 | 0.0639 |  | 
23 | F101T | 0.0639 | 0.0395 | 0.058 |  | 0.0558 | 0.0585 |  |  |  |  | 0.0671 |  | 0.0807 | 0.0505 | 0.0538 | 0.0639 | 0.048 | 0.0551 | 0.0423
24 | S158M |  | 0.0599 | 0.0526 | 0.0641 | 0.0612 |  | 0.0537 | 0.0451 | 0.0632 | 0.0502 | 0.054 | 0.0558 | 0.0456 | 0.0422 | 0.0554 | 0.054 | 0.0652 |  | 0.0473
25 | I15V | 0.0904 | 0.0666 | 0.0654 |  | 0.072 | 0.0596 |  | 0.0604 | 0.101 | 0.03 |  | 0.0789 | 0.0541 | 0.0725 | 0.0763 | 0.117 |  | 0.0639 | 
26 | W141V | 0.0658 | 0.059 | 0.0561 | 0.0728 | 0.0632 | 0.0566 |  | 0.0671 | 0.063 | 0.0645 |  | 0.0483 | 0.0635 | 0.0534 |  | 0.0677 | 0.0661 | 0.0582 | 
27 | N186K |  |  | 0.0659 | 0.13 |  | 0.0605 | 0.0707 | 0.0757 |  | 0.068 |  | 0.0667 |  |  |  | 0.0709 | 0.0761 |  | 0.074
28 | P14V | 0.078 | 0.0669 | 0.0634 | 0.105 | 0.0743 | 0.0687 | 0.0731 | 0.0953 | 0.0589 | 0.0577 |  | 0.0747 | 0.0621 | 0.0853 |  | 0.0991 | 0.058 | 0.0743 | 0.0754
